Measured values reported in the RNAGym collection of RNA variant scans (doi:10.1093/nar/gkz1192).
Read counts are not given, so values of variants with three or more changes are uncertain.

B1: CPEB3 Ribozyme (parent)
chain: UAACAGGGGGCCACAGCAGAAGCGUUCACGUCGCAGCCCCUGUCAGAUUCUGGUGAAUCUGCGAAUUCUGCUGUAUAUCUC

Variants of: B1
Test: self-cleavage, relative activity (ratio to wild type); higher = more cleavage; in vitro, sequencing
In short: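 Relative activity compares each variant's cleaved/total read fraction with that of the unmutated ribozyme. To get these fractions, barcoded CPEB3 ribozyme libraries from rounds of error-prone PCR were transcribed with T7 RNA polymerase for 5 hours at 37°C and then given 15 min of DNase I treatment before EDTA was added. The RNAs were reverse transcribed with template switching and sequenced on Illumina, and DNA sequencing linked barcodes to variants. A minimum of 5 reads applied, and three batches were averaged.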

| Variant | self-cleavage |
| --- | --- |
| UAACAGGGGGCCACAGCAGAAGCGCUCACGCCGCAUCCCCUGUCAGAUUCUGGUGGAUCUGCGAAUUCUGCUGUAUAUCUC [U25C U31C G36U A56G] | 0.1 |
| UAACAGGGGGCCACAGCAGAAGCGCCCACGUCGCAGCCCCUGUCAGAUUCUGGUGAAUCUGCGAAUUCUGCUGAAUAUCUC [U25C U26C U74A] | 0.26 |
| UAACAGGGGGCCACAGCAGAAGCGCUCACGCCGCAGCCCCUGUCAGAUCCUGGUGAACCUGCGAAUUCUGCCGUACAUCUC [U25C U31C U49C U58C U72C U76C] | 0 |
| UAACAGGGGGCCACAGCAGAAGCGCUCACGUCGCAGCCCCAGUCAGAUUCUGGUGAAUCUGCGAACUCUGCUGUAUAUCUC [U25C U41A U66C] | 0.27 |
| UAACAGGGGGCCACAGCAGAAGCGCUCACGCCGCAGCCCCUGUCAGAUUCUGGUUAAUCUGCGAAUUCCGCCGUAUCUCCC [U25C U31C G55U U69C U72C A77C U80C] | 0.05 |
| UAACAGGGGGCCACAGCAGAAGCGCUCACGACGCAGCCCCUGUCAGAUUCUGGUGAAUCUGCGAAUUCCGCUGUAUAUCUC [U25C U31A U69C] | 0.13 |
| UAACAGGGGGCCACAGCAGAAGCGCUCACGUCGCAGCCCCCGUCAUAUUCUGGUGAAUCUGCGAAUUCUGCUGUAUAUCUC [U25C U41C G46U] | 0.08 |
| UAACAGGGGGCCACAGCAGAAGCGCUCACGCCGCAGCCCCUGUCAGAUUCUGGUGAAUCUGCGAGUUCUGCUGUAUACCUC [U25C U31C A65G U78C] | 0.14 |
| UAACAGGGGGCCACAGCAGAAGCGCUCACGCCGCAGCCCCAGUCAGAUUCUGGUGAAUCUGCGAAUUCUGCUGUAAAUCUC [U25C U31C U41A U76A] | 0.18 |
| UAACAGGGGGCCACAGCAGAAGCGCUCACGCCGCAGCCCCCGUCAGAUUCUGGUGAAUCCGCGAAUUCUGCUGUAUAUCUC [U25C U31C U41C U60C] | 0.15 |
| UAACAGGGGGCCACAGCAGAAGCGCCCACGUCGCAGCCCCUGUCAGAUCCUGGUGAAUCUGCGAAUUCUGCUGAAUAUCUC [U25C U26C U49C U74A] | 0.32 |
| UAACAGGGGGCCACAGCAGAAGCGCUCACGUCGCAGCCCCAGUCAGAUUCUGGUGAAUCUGCGAAUUCCGCUGUAUAUCUC [U25C U41A U69C] | 0.22 |
| UAACAGGGGGCCACAGCAGAAGCGCUCACGUCGCAGCCCCCGUCAGAUUCUGGUGUAUCUGCGAAUUCAGCUGUAUUUCUC [U25C U41C A56U U69A A77U] | 0.07 |
| UAACAGGGGGCCACAGCAGAAGCGCCCACGUCGCAGCCCCUGCCAGAUUCUGGUGAAUCUGCGAAUUCUGCUGUAUAUCUC [U25C U26C U43C] | 0.18 |
| UAACAGGGGGCCACAGCAGAAGCGCGCACGUCGCAGCCCCUGACAGAUUCUGGUGAAUCAGCGAAUUCUGCUGUAUAUCUC [U25C U26G U43A U60A] | 0.09 |
| UAACAGGGGGCCACAGCAGAAGCGCUCACGUCGCAGCCCCCGUCAGGUUCUGGUGAAUCUGCGAAUUCUGCUGUAUAUCCC [U25C U41C A47G U80C] | 0.29 |
| UAACAGGGGGCCACAGCAGAAGCGCUCACGUCGCAGCCCCAGUCAGAUUCUGGUGAAUCUGCGAAUUCUGCUGUAAGUCUC [U25C U41A U76A A77G] | 0.15 |

| Variant | self-cleavage |
| --- | --- |
| UAACAGGGGGCCACAGCAGAAGCGCUCACGCCGCAGCCCCUAUCAGAUUCAGGUGAAUCUGCGAAUUCUGCUGUAUAUCUC [U25C U31C G42A U51A] | 0.09 |
| UAACAGGGGGCCACAGCAGAAGCGCUCACGACGCAGCCCCUGUCAGGUUCUGGUGAAUCUGCGAAUUCUGCUGUAUAUCUC [U25C U31A A47G] | 0.2 |
| UAACAGGGGGCCACAGCAGAAGCGCUCACGACGCAGCCCCUGUCAGACUCUGGUGAAUCUGCGAAUUCUGCUGCUUAUCCC [U25C U31A U48C U74C A75U U80C] | 0.13 |
| UAACAGGGGGCCACAGCAGAAGCGCUCACGUCGCAGCCCCCGUCAGAUUCCGGUGAAUCUGCGAAUUCUGCUGUAUAUCUC [U25C U41C U51C] | 0.14 |
| UAACAGGGGGCCACAGCAGAAGCGCUCACGUCGCAGCCCCCGUCAGGUUCUGGAGAAUCUGCGAAUGCUGCUGUAUAUCUC [U25C U41C A47G U54A U67G] | 0.2 |
| UAACAGGGGGCCACAGCAGAAGCGCUCACGACGCAGCCCCUGUCCGAUUCUGGUGAAUCUGCGAAUUCUGCUGUAUAUCUC [U25C U31A A45C] | 0.11 |
| UAACAGGGGGCCACAGCAGAAGCGCCCACGUCGCAGCCCCCGUCUGAUUCUGGUGAAUCUGCGAACUCUGCUGUAUAUCCC [U25C U26C U41C A45U U66C U80C] | 0.09 |
| UAACAGGGGGCCACAGCAGAAGCGCUCACGCCGCAGCCCCUGUCAGAUUCUGGCGAAUCUGCGAAUACUGCUGUAUAUCUC [U25C U31C U54C U67A] | 0.05 |
| UAACAGGGGGCCACAGCAGAAGCGCUCACGUCGCAGCCCCCGUCAGAUUCUGGUGAGUCUGCGAAUUCUGCUGUAUAUCUC [U25C U41C A57G] | 0.11 |
| UAACAGGGGGCCACAGCAGAAGCGCUCACGGCGCGGCCCCUGUCGGAUUCUGGUGAAUCUGCGAAUCCUGCUGUAUAUCUC [U25C U31G A35G A45G U67C] | 0.01 |
| UAACAGGGGGCCACAGCAGAAGCGCUCACGACGCAGCCCCUGUCAGAUUCUAGUGAAUCCGCGAAUUCUGCUGUAUAUCUC [U25C U31A G52A U60C] | 0.15 |
| UAACAGGGGGCCACAGCAGAAGCGCUCACGACGCAGCCCCUGUCAGAUUCAGGUGAAUCUGCGAAUUCUGCUGUAUAUCUC [U25C U31A U51A] | 0.28 |
| UAACAGGGGGCCACAGCAGAAGCGCCCACGUCGCAGCCCCUGUCAGAUUCUGGUGAAUCCGCGAAUUCUGCCGUAUAUCCC [U25C U26C U60C U72C U80C] | 0.1 |
| UAACAGGGGGCCACAGCAGAAGCGCCCACGUCGCAGCCCCAGUCAGAUUCUGGUGUAUCCGCGGAUUCUGCUGUAUAUCUC [U25C U26C U41A A56U U60C A64G] | 0.48 |
| UAACAGGGGGCCACAGCAGAAGCGCUCACGUCGCAGCCCCAGUCAGAUUCUGGCGAAUCUGCGAAUUCUGCUGUAUAUCUC [U25C U41A U54C] | 0.23 |
| UAACAGGGGGCCACAGCAGAAGCGCUCACGUCGCAGCCCCCGUCAGAUUCUGGUGAAUCUGCGAGCUCUGCUGUAUAUCUC [U25C U41C A65G U66C] | 0.23 |
| UAACAGGGGGCCACAGCAGAAGCGCUCACGCCGCAGCCCCUGUCAGGUUCUGGUGAGUCAGCGAAUUCUGCUGUAUAUCUC [U25C U31C A47G A57G U60A] | 0.05 |
